# Results: PubChem BioAssay AID1745853 (National Center for Advancing Translational Sciences (NCATS), 2022)
# This is one part of the list. The main result of the screen is listed elsewhere. These columns were measured beside it and carry no call.
# Legend:
# Assay in all cases: Primary Screen for Target Class Profiling of Small Molecule Inhibitors of Methyltransferases
# [1] = biological target: Glycine N-methyltransferase (Homo sapiens) (UniProt Q14749); conditions: purified enzyme, MTase-Glo SAH luminescence; measured here: GNMT inhibition; at 40 µM; stronger effect = lower value
# Outline: (§1)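 Each enzyme was assayed with SAM and its substrate. SAH formation detected by MTase-Glo luminescence; single-point 40 uM screen[…].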
# [2] = biological target: Guanidinoacetate N-methyltransferase (Homo sapiens) (UniProt Q14353); conditions: purified enzyme, MTase-Glo SAH luminescence; measured here: GAMT inhibition; at 40 µM; stronger effect = lower value
# Outline: as §1
# [3] = biological target: Histamine N-methyltransferase (Homo sapiens) (UniProt P50135); conditions: purified enzyme, MTase-Glo SAH luminescence; measured here: HNMT inhibition; at 40 µM; stronger effect = lower value
# Outline: as §1
# [4] = biological target: Nicotinamide N-methyltransferase (Homo sapiens) (UniProt P40261); conditions: purified enzyme, MTase-Glo SAH luminescence; measured here: NNMT inhibition; at 40 µM; stronger effect = lower value
# Outline: as §1
# [5] = biological target: Phenylethanolamine N-methyltransferase (Homo sapiens) (UniProt P11086); conditions: purified enzyme, MTase-Glo SAH luminescence; measured here: PNMT inhibition; at 40 µM; stronger effect = lower value
# Outline: as §1
# On the % scale 0 is the no-effect control and ±100 the full control effect.
SMILES,"activity change, negative = inhibition [1] [%]","activity change, negative = inhibition [2] [%]","activity change, negative = inhibition [3] [%]","activity change, negative = inhibition [4] [%]","activity change, negative = inhibition [5] [%]"
C[C@@H](Nc1cc(NS(=O)(=O)N2CCC2)nc(SCc2cccc(F)c2F)n1)[C@@H](O)CO,-0.936,4.71,12.2,-8.51,5.8
COc1ccc(N2CCN(C(=O)CC3CCCCN(C)C3=O)CC2)cc1 (stereo not given),-6.89,-8.05,-4.88,-14.5,-9.32
CCCn1c(=O)c2ccc(C(=O)NCC(C)C)cc2n2c(=O)n(Cc3ccc(F)cc3)nc12,2.11,1.1,6.41,1.15,4.07
Fc1ccccc1-c1noc(NCCc2ccc(Cl)cc2)n1,-11.2,-6.34,-2.37,-22,1.55
C=C1CCC2C(C)(COC3OC(COC(=O)CC(=O)O)C(O)C(O)C3O)CCCC2(C)C1CCC1=CCOC1=O (stereo not given),0,-0.836,-0.542,-13.4,0.849
Cc1ccc([S+](=O)([O-])NC[C@@H]2CC[C@H]3C[C@@H]2C3(C)C)cc1,-7.45,-7.94,-3.25,-21.7,-18.1
C[C@@H](N)C(=O)N1CCC(C(=O)Nc2cccc(-c3cccc(Cl)c3)c2)CC1,-6.21,-3.16,-16,-9.7,-2.58
O=C(Nc1ccccc1)N1CCC2(C1)C(=O)N(CCc1ccccc1)c1ccccc12 (stereo not given),-4,-3.51,-2.49,-1.31,-1.74
CC(C)CCN1C(=O)c2cc3ccccc3n2CC1(C)C(=O)NCc1ccccc1 (stereo not given),2.5,2.08,6.83,2.9,1.08
CC1(C(=O)NC2CCCCCCC2)Cn2c(cc3ccccc32)C(=O)N1CCN1CCOCC1 (stereo not given),0.944,4.27,0.916,-3.54,-4.67
O=C(Nc1ccc2[nH]c(=O)oc2c1)C(=O)N1CCC(Cc2ccc(F)cc2)CC1,-4.4,2.09,-1.59,-22.2,-6.1
CCCCCNC(=O)c1ccc2c(=O)nc3c(-c4ccccc4)n[nH]n3c2c1,-11.5,-1.8,-6.67,-9.29,-13.1
CCCn1c(=O)c2ccc(Cl)cc2n2c(SCc3ccc(F)cc3)nnc12,-0.824,3,4.26,-2.64,3.67
CC1(C)CC[C@]2(C(=O)O[C@@H]3O[C@H](CO)[C@@H](O)[C@H](O)[C@H]3O)CC[C@]3(C)C(=CCC4[C@@]5(C)C[C@@H](O)[C@H](O)[C@@](C)(CO)C5[C@H](O)C[C@]43C)C2C1 (stereo not given in full),-3.96,-1.61,10.8,-21.4,-11.3
CCCCOc1ccccc1-c1cc2n(n1)CC(C)(C(=O)NC1CCCCC1)N(CC)C2=O (stereo not given),-5.06,4.25,-1.66,-2.08,-1.12
CCCC1c2cccn2CCN1C(=O)Nc1ccccc1C(F)(F)F (stereo not given),4.57,1.45,-61.2,9.18,7.89
CC(=O)Nc1nc(C)c(-c2ccc(Cl)c(S(=O)(=O)NCCO)c2)s1,3.19,6.33,10.6,-13.9,5.67
CCOc1ccc(CN2C(=O)c3ccc(-c4ccco4)n3CC2(C)C(=O)NC2CCCCC2)cc1 (stereo not given),-4.21,5.82,-2.44,-1.5,-1.85
COc1cccc(CN2C(=O)c3cc4ccccc4n3CC2(C)C(=O)NC2CCCCC2)c1OC (stereo not given),-2.48,0.013,2.52,-1.36,-8.29
COc1cc(O)c2c(c1)C1=C[C@H](O)[C@@H](O)C[C@]1(C)OC2=O,-0.005,6.52,5.39,-8.12,3.06
C[C@H]1CCCN1C(=O)c1nnc(CNCCCn2ccnc2)n1-c1ccccc1,-5.88,-1.99,-1.8,-8.03,11.6
Cc1cc(C(=O)N2CCCC(n3c(C)cnc3C3CCC3)C2)nn1C (stereo not given),-0.455,1.67,-7.95,-5.29,-1.75
CCCN1C(=O)CCc2cc(NC(=O)NCCCOCC)ccc21,-2.24,0.866,-33.6,-3.31,8.4
CCCN1C(=O)c2c(C(=O)NCCN3CCOCC3)ncn2CC1(C)C(=O)NCc1ccc(F)cc1 (stereo not given),1.93,2.22,9.37,11.2,10.1
CC(C)N1C[C@@H](COC(C)(C)C)[C@H](c2ccccc2)[S+]1(=O)[O-],-5.2,-5.43,-1.87,-9.7,-19
CN1CCN(S(=O)(=O)c2ccc(F)cc2)CC12CCNC(=O)CC2 (stereo not given),-4.18,-9.11,-4.82,-12,-8.66
Cc1cc(CN(C)C(=O)c2cc(COc3ccc4c(c3)OCO4)[nH]n2)on1,-4.95,-3.7,-0.959,-10.6,-20.6
Cc1ccc(CN2CCOCCNC(=O)[C@H]3CCCC[C@H]32)s1,-5.14,-6.47,-1.84,-7.52,-2.44
CCCCOc1ccc(CNC(=O)c2cc3n(n2)CC(C)(C(=O)NCc2ccc(C)cc2)N(C)C3=O)cc1 (stereo not given),5.55,0.701,6.07,6.39,6.47
